{"source": "PubChem BioAssay AID624417", "about": "(National Center for Advancing Translational Sciences (NCATS), 2012)", "note": "Out of some 410,000 compounds screened, about 6,400 (1.6%) were called active. This list was built around the results that the source calls inconclusive (neither active nor inactive); the mix of calls is not that of the screen. Calls come from the whole dose curve; as a rule, active = well fitted inhibition curve with a large enough effect; inconclusive = small, poorly fitted or top-dose-only effect; inactive = no such curve, though single readings can be large or run the other way. A potency beside an inconclusive call is a rough fit, not a confirmed value. % is set by controls: 0 for no effect and ±100 for the full control effect; potency is the fitted concentration of half-maximal effect; tags give direction and shape of the fitted curve."}
{"molecular_target": "Glucagon-like peptide 1 receptor (Homo sapiens) (UniProt P43220)", "sequence (P43220 whole entry, looked up)": "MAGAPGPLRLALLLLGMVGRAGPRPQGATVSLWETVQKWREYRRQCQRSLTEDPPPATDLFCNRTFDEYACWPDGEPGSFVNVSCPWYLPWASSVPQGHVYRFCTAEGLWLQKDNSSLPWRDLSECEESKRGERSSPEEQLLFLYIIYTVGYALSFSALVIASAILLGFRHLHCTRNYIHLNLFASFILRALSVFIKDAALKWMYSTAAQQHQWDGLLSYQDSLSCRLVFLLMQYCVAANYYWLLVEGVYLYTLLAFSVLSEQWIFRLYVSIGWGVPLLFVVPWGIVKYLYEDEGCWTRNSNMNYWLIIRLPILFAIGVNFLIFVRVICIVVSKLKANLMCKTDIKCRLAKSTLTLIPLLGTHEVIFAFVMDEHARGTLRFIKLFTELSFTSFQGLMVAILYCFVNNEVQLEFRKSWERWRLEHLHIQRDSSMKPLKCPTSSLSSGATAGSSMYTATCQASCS", "test": "qHTS of GLP-1 Receptor Inverse Agonists (Inhibition Mode); note: nearly all actives have a fitted effect of over 55% in size", "conditions": "HEK293 GLP-1R CRE-luciferase, luminescence, 24 h; Potency: GLP-1R form is constitutively active unless noted; activity change, negative = inhibition: at 38.3 µM (top of the series) unless noted", "outline": "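GLP-1R inverse agonism mode: basal reporter luminescence in engineered HEK293 cells measured after one day of compound exposure at 37 deg C, with a 12 min room-temperature detection step.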"}
{"compound": "COc1ccc(Nc2nc(N3CCN(C)CC3)nc3ccccc23)c(OC)c1", "Potency": "inconclusive: 20 µM [inhibitor, single point]"}
{"compound": "O=C(NCCCn1ccnc1)C(Cl)(Cl)Cl", "activity change, negative = inhibition": "inactive: 7.76%"}
{"compound": "Cc1ccccc1CC(=O)N(CCN(C)C)CC1CCCN(Cc2ccccc2F)C1", "note": "(stereo not drawn)", "Potency": "inconclusive: 10 µM [inhibitor, partial curve, poor fit]"}
{"compound": "COc1ccc([C@@H]2COc3c(ccc4c3C=CC(C)(C)O4)C2)c(OC)c1", "Potency": "inconclusive: 11.2 µM [inhibitor, single point]"}
{"compound": "CCCOc1ccc(C2SCC(=O)Nc3c2c(C)nn3-c2cccc(C)c2)cc1OC", "note": "(stereo not drawn)", "Potency": "inconclusive: 28.2 µM [inhibitor, partial curve, poor fit]"}
{"compound": "COc1cccc(NC(=O)Cn2cc(C(=O)c3ccccc3)c3ccccc32)c1", "Potency": "inconclusive: 22.4 µM [inhibitor, single point]"}
{"compound": "COc1ccc(C(c2nnnn2-c2ccc3c(c2)OCCO3)N2CCC(n3c(=O)[nH]c4ccccc43)CC2)cc1", "note": "(stereo not drawn)", "Potency": "inconclusive: 14.1 µM [inhibitor, single point]"}
{"compound": "CN(C)CCN(CC1CCCN(Cc2ccccc2F)C1)C(=O)Cc1ccc(F)c(F)c1", "note": "(stereo not drawn)", "Potency": "inconclusive: 6.31 µM [inhibitor, partial curve, poor fit]"}
{"compound": "O=Cc1cn(Cc2ccccc2F)c2ccccc12", "Potency": "inconclusive: 7.94 µM [inhibitor, partial curve, poor fit]"}
{"compound": "CC(=O)OC1N=C(c2ccccc2)c2ccccc2NC1=O", "note": "(stereo not drawn)", "activity change, negative = inhibition": "inactive: 14.2%"}
{"compound": "Cc1cccc(Cn2cccc(C(=O)Nc3ccc4c(c3)OCCO4)c2=O)c1", "Potency": "inconclusive: 28.2 µM [inhibitor, single point]"}
{"compound": "CCN(CC)C(=O)c1ccc(NC(=O)c2cccc(C(F)(F)F)c2)cc1", "Potency": "inconclusive: 3.98 µM [inhibitor, full curve]"}
{"compound": "Fc1ccccc1CNCCc1c[nH]c2ccccc12", "Potency": "inconclusive: 10 µM [inhibitor, partial curve, poor fit]"}
{"compound": "Cc1ccc(S(=O)(=O)N2[C@H](c3cccc(Cl)c3)CC(=O)[C@@H]3CN(S(=O)(=O)c4ccccc4C)[C@H](c4ccc(Cl)cc4)C[C@@H]32)cc1", "Potency": "inconclusive: 10 µM [inhibitor, partial curve, poor fit]"}
{"compound": "CCN(CC)CCSc1nc2ccccc2c(=O)n1-c1ccc(Cl)cc1", "Potency": "inconclusive: 28.2 µM [inhibitor, single point]"}
{"compound": "COc1ccc(CN2Cc3cc(-c4cccc(F)c4)ccc3-n3nncc3C2)cc1", "activity change, negative = inhibition": "inactive: 23.3%"}
{"compound": "COC(=O)C1=C(c2ccc(F)cc2OCc2ccccc2)C[C@@H]2CC[C@H]1N2C(=O)NCCOc1ccccc1", "Potency": "inconclusive: 12.6 µM [inhibitor, partial curve, poor fit]"}
{"compound": "Cn1cc(C(=O)OCC(=O)NC2CCCCC2)c2ccccc21", "activity change, negative = inhibition": "inactive: -23.6%"}
{"compound": "NC(Cc1ccc(C(F)(F)F)cc1)c1csc(Nc2nncc3ccccc23)n1", "note": "(stereo not drawn)", "Potency": "inconclusive: 22.4 µM [inhibitor, single point]"}
{"compound": "N=c1c2c(n(Cc3ccc(Cl)cc3Cl)c3c1CCC3)CCCC2", "Potency": "inconclusive: 2.51 µM [inhibitor, full curve, poor fit]"}
{"compound": "COc1ccc(CN2Cc3cnnn3-c3ccccc3C2c2ccccc2)cc1", "note": "(stereo not drawn)", "Potency": "inconclusive: 12.6 µM [inhibitor, single point]"}
{"compound": "Nc1c(C(=O)OCC2CCCO2)c2nc3ccccc3nc2n1Cc1cccs1", "note": "(stereo not drawn)", "Potency": "inconclusive: 10 µM [inhibitor, single point]"}
{"compound": "CCN(CC)c1nc2ccccc2nc1C(=O)Nc1cccc(C(C)=O)c1", "Potency": "inconclusive: 28.2 µM [inhibitor, single point]"}
{"compound": "CCCCn1c(C)c(C(=O)OCC)c2c(CN3CCOCC3)c(O)ccc21", "Potency": "inconclusive: 28.2 µM [inhibitor, single point]"}
{"compound": "CCc1ccc2nc(N3CCC(C(=O)N4CCC5(CC4)OCCO5)CC3)sc2c1", "Potency": "inconclusive: 7.94 µM [inhibitor, partial curve, poor fit]"}
{"compound": "CC(C)NC1C2CCC(CC2)C1(O)c1ccc(Cl)c(Cl)c1", "note": "(stereo not drawn)", "Potency": "inconclusive: 28.2 µM [inhibitor, single point]"}
{"compound": "CCOC(=O)c1cnc(SCc2ccc(Cl)c(Cl)c2)nc1N1CC1", "Potency": "inconclusive: 10 µM [inhibitor, single point]"}
{"compound": "CC(=O)OCC[N+](C)(C)C", "Potency": "inactive"}
{"compound": "Cc1ccc2c(c1)C1CN(C)CCC1N2C(=O)COc1ccc(N(C)S(=O)(=O)c2cccs2)cc1", "note": "(stereo not drawn)", "Potency": "inconclusive: 28.2 µM [inhibitor, single point]"}
{"compound": "CCN(CCCl)Cc1ccccc1Br", "activity change, negative = inhibition": "inactive: -5.56%"}
{"compound": "O=c1c2ccccc2nc(/C=C\\c2ccccc2F)n1-c1ccc(O)cc1", "activity change, negative = inhibition": "inactive: 49.7%"}
{"compound": "c1ccc(C2(N3CCCCC3)CCCCC2)cc1", "activity change, negative = inhibition": "inactive: 5.84%"}
{"compound": "O=c1[nH]c(=O)n(Cc2ccccc2)c(O)c1C=NCCCn1ccnc1", "Potency": "inconclusive: 28.2 µM [inhibitor, single point]"}
{"compound": "COc1ccc(NC(=O)CCOc2cc(C)ccc2C)cc1S(=O)(=O)N1CCCCC1", "Potency": "inconclusive: 10 µM [inhibitor, single point]"}
{"compound": "COc1cc(/C=C/C(=O)c2c(O)n(CCc3ccccc3)c(=O)[nH]c2=O)ccc1O", "Potency": "inconclusive: 2.51 µM [inhibitor, partial curve, poor fit]"}
{"compound": "Cc1c(C)c2ccc(OCC(=O)N3CCC(C(=O)O)(c4ccccc4)CC3)cc2oc1=O", "activity change, negative = inhibition": "inactive: 7.82%"}
{"compound": "Clc1ccc2sc(C3CCNCC3)nc2c1", "activity change, negative = inhibition": "inconclusive: -75.3% [inhibitor] [at 38.3 µM, GLP-1R form is constitutively active]"}
{"compound": "C[C@@]12C(=O)N(Cc3ccco3)CC(=O)N1[C@H]1c3ccccc3OC[C@@H]1[C@@H]2c1ccccc1", "Potency": "inconclusive: 28.2 µM [inhibitor, single point]"}
{"compound": "CCOC(=O)c1cccc(NC(=O)NCc2ccc3c(c2)CCN3C(=O)c2ccccc2)c1", "Potency": "inconclusive: 28.2 µM [inhibitor, single point]"}
{"compound": "CCCCc1ccc(NC(=O)c2cccn(Cc3ccc(Cl)cc3)c2=O)cc1", "Potency": "inconclusive: 0.501 µM [inhibitor, full curve, poor fit]"}
{"compound": "Cc1c(C(c2ccc(Cl)cc2Cl)c2c(O)c3ccccc3oc2=O)c(=O)n(-c2ccccc2)n1C", "note": "(stereo not drawn)", "Potency": "inconclusive: 10 µM [inhibitor, partial curve]"}
{"compound": "CC(C)(COC(=O)C(c1ccccc1)c1ccccc1)CN1CCOCC1", "Potency": "inconclusive: 11.2 µM [inhibitor, partial curve, poor fit]"}
{"compound": "Cc1ccccc1CN1C(=O)CN=C(c2ccccc2)c2cc(Cl)ccc21", "Potency": "inconclusive: 10 µM [inhibitor, partial curve]"}
{"compound": "Cc1ccc2c(c1)C=CC(C#N)N2C(=O)Oc1ccccc1", "note": "(stereo not drawn)", "Potency": "inconclusive: 31.6 µM [inhibitor, single point]"}
{"compound": "COc1ccc(C(=O)Nc2ccc(Cl)cc2C(=O)c2ccccc2)c(OC)c1", "Potency": "inconclusive: 12.6 µM [inhibitor, single point]"}
{"compound": "CC(C(=O)c1cn(C)c2ccccc12)c1ccccc1", "note": "(stereo not drawn)", "Potency": "inconclusive: 28.2 µM [inhibitor, partial curve, poor fit]"}
{"compound": "COC(=O)C1=C(c2ccc(S(C)(=O)=O)cc2)C[C@@H]2CC[C@H]1N2C(=O)N1CCC(C)CC1", "activity change, negative = inhibition": "inactive: 21.4%"}
{"compound": "O=C1/C(=C\\c2ccc(Cl)cc2Cl)N2CCC1CC2", "Potency": "inconclusive: 14.1 µM [inhibitor, single point]"}
{"compound": "Clc1ccccc1N1CCN(Cc2ccc3c(c2)OCO3)CC1", "Potency": "inconclusive: 10 µM [inhibitor, partial curve, poor fit]"}
{"compound": "O=C(CNC(=O)OCc1ccccc1)Nc1ccc(Br)cc1C(=O)c1ccccc1Cl", "Potency": "inconclusive: 10 µM [inhibitor, partial curve, poor fit]"}
{"compound": "Nc1ccc(N2CCN(Cc3ccccc3Cl)CC2)c(Cl)c1", "Potency": "inconclusive: 11.2 µM [inhibitor, partial curve, poor fit]"}
{"compound": "C[C@@H]1C[C@@H]2O[C@H]2/C=C\\C=C\\C(=O)Cc2c(Cl)c(O)cc(O)c2C(=O)O1", "Potency": "inconclusive: 3.16 µM [inhibitor, full curve]"}
{"compound": "Cc1nc2cc(-c3cccc(F)c3)nn2c(C)c1CCC(=O)N1CCC2(CC1)OCCO2", "activity change, negative = inhibition": "inactive: 25.2%"}
{"compound": "Cc1cccc(OCC(=O)N2CCN(Cc3ccc4c(c3)OCO4)CC2)c1", "Potency": "inconclusive: 14.1 µM [inhibitor, single point]"}
{"compound": "N#Cc1ccccc1Cn1cc(C(=O)c2cccs2)c2ccccc21", "Potency": "inconclusive: 20 µM [inhibitor, single point]"}
{"compound": "CCCCCCOc1ccc(CN2CCN(CC)CC2)cc1", "Potency": "inconclusive: 5.62 µM [inhibitor, full curve, poor fit]"}
{"compound": "CCOC(=O)[C@]12Cc3ccc(C)cc3[C@H]1N(C1CCCCC1)C(=O)c1cc(OC)ccc12", "Potency": "inconclusive: 2.24 µM [inhibitor, full curve, poor fit]"}
{"compound": "CCOc1cc2c(cc1OCC)-n1cccc1C(c1c(O)cccc1OC)NC2", "note": "(stereo not drawn)", "Potency": "inconclusive: 28.2 µM [inhibitor, single point]"}
{"compound": "Cc1ccccc1C1CC(=O)Nc2ccc3ccccc3c21", "note": "(stereo not drawn)", "Potency": "inconclusive: 5.01 µM [inhibitor, full curve, poor fit]"}
{"compound": "O=C(CCl)Nc1sccc1C(=O)c1ccccc1", "Potency": "inconclusive: 28.2 µM [inhibitor, single point]"}
{"compound": "COc1ccc(Br)cc1CN1CCN(C(=O)Cc2ccccc2)CC1", "Potency": "inconclusive: 11.2 µM [inhibitor, single point]"}
{"compound": "C=CCn1c(O)c(C(C)=NCc2cc(OC)cc(OC)c2)c(=O)[nH]c1=O", "activity change, negative = inhibition": "inactive: -2.96%"}
{"compound": "COC(=O)C1=C(c2cc3ccccc3s2)C[C@@H]2CC[C@H]1N2C(=O)NCC1CC1", "Potency": "inconclusive: 10 µM [inhibitor, partial curve, poor fit]"}
